± gives the standard deviation of the averaged measurements. In all, about 33,000 sequences were measured (“E-score (dimensionless, -0.5 to 0.5)”: median about -0.046, highest 2% from about 0.36 on). Some of the results follow.
test system: T1, SpTbr T-box DNA-binding domain (GST fusion); assay: PBM E-score of 8-mer (E-score (dimensionless, -0.5 to 0.5)); Tbr is Tbrain of the sea star Patiria miniata (Pm) or the sea urchin Strongylocentrotus purpuratus (Sp); higher = stronger binding preference; most listed sequences are background and not binding sites; conditions: the construct has about 5 more residues each side
T1 sequence: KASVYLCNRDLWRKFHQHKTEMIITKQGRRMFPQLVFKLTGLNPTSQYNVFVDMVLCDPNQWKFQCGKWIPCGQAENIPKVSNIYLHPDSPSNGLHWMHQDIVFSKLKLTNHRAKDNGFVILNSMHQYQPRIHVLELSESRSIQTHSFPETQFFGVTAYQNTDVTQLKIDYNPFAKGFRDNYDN
Method in brief: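 Universal Agilent oligonucleotide arrays, made double-stranded by primer extension, were incubated with 200 nM GST-fused Tbr T-box DNA-binding domain in PBS (pH 7.5). The protein was expressed in BL21 E. coli at 20 °C and purified by glutathione affinity chromatography. After scanning and quantification, the Universal PBM Analysis Suite assigned an enrichment E-score to each ungapped 8-mer, averaged over duplicate arrays.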

Sequence	PBM E-score of 8-mer
CAACTTGG	0.152 ± 0.022
AGGGTGAG	0.216 ± 0.048
AGGGTGAC	0.239 ± 0.047
GACCTTAA	-0.188 ± 0.0048
CTATATCC	-0.0238 ± 0.0011
ATATCCTC	-0.148 ± 0.0028
ATTCATAA	-0.137 ± 0.0041
CCGCACAG	0.152 ± 0.013
CGGCAAGC	-0.15 ± 0.023
CCCTGGCG	0.0703 ± 0.082
CTCGTGCC	-0.0876 ± 0.037
AGGCAATG	-0.0948 ± 0.048
CCATGACA	0.144 ± 0.056
CTGCTGGA	-0.26 ± 0.004
ACCTATTA	0.0258 ± 0.001
ATAAACTC	-0.0618 ± 0.002
CAGTATCG	0.0559 ± 0.018
ACAAGCCA	0.103 ± 0.0058
GACGGGAA	0.0649 ± 0.056
GAAGTCCC	-0.099 ± 0.05
CATTTCTA	0.0766 ± 0.072
AGAGTTGA	0.105 ± 0.043

Sequence	PBM E-score of 8-mer
AGATTTCG	0.0333 ± 0.039
TGTACCAA	-0.0585 ± 0.11
ACCGGCCG	-0.189 ± 0.029
GAACCCAC	-0.249 ± 0.044
ATGATACG	-0.0359 ± 0.0093
CTCTGGCC	-0.318 ± 0.042
GTGACCAA	0.129 ± 0.024
ATTGGCTA	-0.118 ± 0.0085
GTAACGTA	-0.217 ± 0.024
CTTTATCC	-0.201 ± 0.0046
CAAGCAAC	-0.0167 ± 0.075
ACCGAAGA	-0.00903 ± 0.0076
CTCGGCAA	-0.0107 ± 0.054
AATTCTAG	-0.227 ± 0.029
AATCAATT	0.0832 ± 0.12
AGGATACC	-0.292 ± 0.028
AGGCACTA	-0.127 ± 0.064
AGCTAGCG	0.0935 ± 0.042
ATACGTCC	-0.205 ± 0.019
AGTTTAGA	-0.123 ± 0.0093
AAACACGT	0.258 ± 0.063
AGGTGGAA	0.0503 ± 0.028

Sequence	PBM E-score of 8-mer
CCTATAAG	0.118 ± 0.016
ACAAGTCG	0.218 ± 0.029
ACAGATCC	-0.0823 ± 0.011
AGCGACCG	-0.0425 ± 0.01
AACGGCGG	0.0941 ± 0.035
CAACAGGG	-0.179 ± 0.012
CTTGTTCA	0.0567 ± 0.042
ATAACGAA	-0.0167 ± 0.027
CCGTACGG	-0.279 ± 0.043
ACAGTGGG	0.0359 ± 0.0088
AAAGTATA	-0.0349 ± 0.041
ACCTCCGC	0.0711 ± 0.017
CAGACCAA	-0.0563 ± 0.049
CAAGGTTA	-0.114 ± 0.062
AATAATTG	-0.0315 ± 0.04
CAAGCACA	0.125 ± 0.058
GTCGTGAA	0.3 ± 0.034
TGCCAGCA	0.0813 ± 0.012
GCGGTACC	0.00526 ± 0.018
GAATTAGC	0.0795 ± 0.01
GAGATCAC	0.236 ± 0.038
AAAGTAAT	-0.288 ± 0.016

Sequence	PBM E-score of 8-mer
AGAAGTAC	-0.21 ± 0.009
AACACACA	0.276 ± 0.0056
TGCGCAAA	0.173 ± 0.027
TCACAGCA	0.224 ± 0.044
CCGATAGA	-0.229 ± 0.053
CCTTTAGA	-0.292 ± 0.04
CAACAACG	0.0673 ± 0.059
CAGTAAAA	-0.2535 ± 0.0015
ATCGTGAA	0.2403 ± 0.0014
ACGGTATC	-0.136 ± 0.057
AACGGCCC	-0.174 ± 0.044
CCAGAAAA	-0.0169 ± 0.024
CTAATGAC	0.074 ± 0.033
CCGTGGTA	-0.101 ± 0.033
CATCATAA	-0.0269 ± 0.00038
GCAATAGC	-0.00993 ± 0.042
CGCAATGA	-0.126 ± 0.016
ATCAGTAA	-0.169 ± 0.066
CTTCTTCA	0.0983 ± 0.013
GGTCGACC	-0.281 ± 0.009

Source: the supplement of paper PMC4166925
